Results published in the antibiotic and cytotoxicity screens of Wong et al. (2023).
The list shows a part of the results.

Assays:
HSkMC = human skeletal muscle cells; test: cytotoxicity call (relative viability < 0.9); conditions: 10 µM
HepG2 = test: cytotoxicity call (relative viability < 0.9); conditions: 10 µM
S. aureus RN4220 = test: growth inhibition call (relative growth <= 0.2); conditions: 50 µM

C[C@H](CO)N1C[C@H](C)[C@@H](CN(C)S(=O)(=O)c2ccccc2)Oc2ccc(NC(=O)Cn3cnnn3)cc2C1=O
inactive: cytotoxicity call (HSkMC) | cytotoxicity call (HepG2) | growth inhibition call (S. aureus RN4220)

CCNC(=O)[C@@H]1CCCN1C(=O)[C@H](CCCNC(=N)N)NC(=O)[C@H](CC(C)C)NC(=O)[C@@H](CC(C)C)NC(=O)[C@H](Cc1ccc(O)cc1)NC(=O)[C@H](CO)NC(=O)[C@H](Cc1c[nH]c2ccccc12)NC(=O)[C@H](Cc1cnc[nH]1)NC(=O)[C@@H]1CCC(=O)N1
inactive: cytotoxicity call (HSkMC) | cytotoxicity call (HepG2) | growth inhibition call (S. aureus RN4220)

C[C@@H]1CN([C@H](C)CO)C(=O)Cc2cc(NC(=O)Cn3cnnn3)ccc2O[C@@H]1CN(C)S(=O)(=O)c1cn(C)cn1
inactive: cytotoxicity call (HSkMC) | cytotoxicity call (HepG2) | growth inhibition call (S. aureus RN4220)

C[C@@H]1CN([C@H](C)CO)C(=O)c2cccc(NS(=O)(=O)c3cn(C)cn3)c2O[C@H]1CN(C)CC1CC1
inactive: cytotoxicity call (HSkMC) | cytotoxicity call (HepG2) | growth inhibition call (S. aureus RN4220)

CO[C@@H]1CN(C)C(=O)c2ccc(NC(=O)c3ccc(F)cc3)cc2OC[C@H](C)N(C(=O)CN(C)C)C[C@H]1C
inactive: cytotoxicity call (HSkMC) | cytotoxicity call (HepG2) | growth inhibition call (S. aureus RN4220)

C[C@H]1CCCCO[C@H](CN(C)S(=O)(=O)c2ccc(F)cc2)[C@@H](C)CN([C@@H](C)CO)C(=O)c2cc(NS(=O)(=O)c3cn(C)cn3)ccc2O1
inactive: cytotoxicity call (HSkMC) | cytotoxicity call (HepG2) | growth inhibition call (S. aureus RN4220)

C[C@@H]1CN([C@@H](C)CO)C(=O)c2cc(NC(=O)Nc3cccc4ccccc34)ccc2O[C@H]1CN(C)C(=O)Nc1cccc2ccccc12
inactive: cytotoxicity call (HSkMC) | cytotoxicity call (HepG2) | growth inhibition call (S. aureus RN4220)

C[C@@H]1CCCCO[C@H](CN(C)CC2CCCCC2)[C@H](C)CN([C@H](C)CO)C(=O)c2cc(NC(=O)c3ccncc3)ccc2O1
inactive: cytotoxicity call (HSkMC) | cytotoxicity call (HepG2) | growth inhibition call (S. aureus RN4220)
